Measured values reported in article PMC4336329 (PLoS ONE, 2015).
The whole screen tested about 310,000 compounds, of which about 2,200 (0.71%) showed an effect of 50% or more. Effects have a minus sign here. Some of the results follow.

target: human ether-à-go-go-related gene (hERG) potassium channel (human, UniProt Q12809); assay: primary screen, population patch clamp on CHO cells stably expressing hERG
Sequence (Q12809 whole entry, looked up): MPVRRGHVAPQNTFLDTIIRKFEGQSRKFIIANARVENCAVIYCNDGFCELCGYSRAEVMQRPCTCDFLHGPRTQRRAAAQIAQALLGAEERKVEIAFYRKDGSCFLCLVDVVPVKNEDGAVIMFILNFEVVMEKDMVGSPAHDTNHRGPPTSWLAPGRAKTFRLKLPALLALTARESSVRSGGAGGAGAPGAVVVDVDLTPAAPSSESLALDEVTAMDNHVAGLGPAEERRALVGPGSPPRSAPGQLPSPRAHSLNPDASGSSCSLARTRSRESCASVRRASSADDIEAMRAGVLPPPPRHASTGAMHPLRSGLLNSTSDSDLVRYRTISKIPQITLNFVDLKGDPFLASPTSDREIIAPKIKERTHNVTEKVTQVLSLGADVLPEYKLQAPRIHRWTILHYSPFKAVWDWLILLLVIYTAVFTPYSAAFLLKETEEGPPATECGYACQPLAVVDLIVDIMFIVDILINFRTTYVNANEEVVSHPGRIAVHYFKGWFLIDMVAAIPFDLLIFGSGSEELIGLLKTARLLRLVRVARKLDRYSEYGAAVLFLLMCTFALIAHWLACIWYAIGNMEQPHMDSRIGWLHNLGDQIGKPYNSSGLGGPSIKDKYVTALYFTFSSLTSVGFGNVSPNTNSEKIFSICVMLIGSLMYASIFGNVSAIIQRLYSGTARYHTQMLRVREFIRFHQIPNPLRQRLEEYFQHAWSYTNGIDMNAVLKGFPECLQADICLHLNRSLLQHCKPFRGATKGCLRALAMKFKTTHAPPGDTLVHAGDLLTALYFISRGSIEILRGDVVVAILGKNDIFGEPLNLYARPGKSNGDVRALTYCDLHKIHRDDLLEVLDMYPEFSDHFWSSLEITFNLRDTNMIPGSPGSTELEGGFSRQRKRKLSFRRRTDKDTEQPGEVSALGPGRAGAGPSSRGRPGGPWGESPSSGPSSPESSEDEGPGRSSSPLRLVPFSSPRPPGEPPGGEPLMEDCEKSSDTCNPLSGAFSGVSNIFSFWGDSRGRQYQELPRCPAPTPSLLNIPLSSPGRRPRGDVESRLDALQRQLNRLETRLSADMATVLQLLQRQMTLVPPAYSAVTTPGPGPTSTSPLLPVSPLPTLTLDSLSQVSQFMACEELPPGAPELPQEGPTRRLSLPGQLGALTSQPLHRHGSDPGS

Row | Structure (SMILES) | hERG current change (%, negative = inhibition) at 1uM
1 | O=C(Nc1ccc(N2CCOCC2)nc1)c1ccc(C(F)(F)F)cc1 | 5.74%
2 | Cc1ccc(N2CC(C(=O)Nc3cc(C)on3)CC2=O)cc1 (stereo not drawn) | 8.12%
3 | COc1cccc(OC)c1C(=O)N1CCN(c2ccccn2)CC1 | 10.8%
4 | C/C(=N/NC(=O)c1cc(-c2ccc(Br)s2)[nH]n1)c1ccco1 | 18%
5 | O=C1C2C3CCC(O3)C2C(=O)N1c1cccc(O)c1 (stereo not drawn) | 12.7%
6 | CCOc1ccccc1NC(=O)Nc1cccc(S(N)(=O)=O)c1 | 3.48%
7 | COc1ccc(CN2C(=O)N(c3ccccc3)C(=O)C2CC(=O)Nc2ccccc2)cc1OC (stereo not drawn) | 11%
8 | CN(C)c1ccc(C=C2C(=O)OC(C)(C(C)(C)C)OC2=O)cc1 (stereo not drawn) | 8.32%
9 | CCOC(=O)c1ccc(S(=O)(=O)NNC(=O)c2ccc3c(c2)nc(C)n3CC)cc1 | 11%
10 | O=C(OCC(O)C(O)COC(=O)c1ccccc1)c1ccccc1 (stereo not drawn) | 6.91%
11 | O=C(CSc1nc2ccccc2[nH]1)Nc1ccc2c(c1)OCCO2 | 4.8%
12 | COc1ccc(NC(=O)CSc2nc(N)c3cc4c(nc3n2)CC(C)(C)OC4)cc1 | 14.3%
13 | CN(C)CCn1c(=O)n(Cc2ccco2)c(=O)c2c3c(sc21)CCCCC3 | -11.6%
14 | Cc1ccc(S(=O)(=O)CCC(=O)Nc2nc(-c3ccncc3)cs2)cc1 | 12.1%
15 | COCCOc1ccc(C(F)(F)F)cc1NC(=O)COC(=O)C1=COCCO1 | -22.7%
16 | COC(=O)[C@H](CC(C)C)NC(=O)NCc1ccc(Cl)cc1 | 7.71%
17 | O=C1N=C2SCCN2/C1=C\c1c(Cl)cccc1Cl | 7.7%
18 | O=C1N/C(=N\N=C\c2cccs2)SC1Cc1ccc(Cl)c(Cl)c1 (stereo not drawn) | 11.8%
19 | Cc1ccc(C(=O)N/N=C\c2cccs2)cn1 | 1.82%

Row | Structure (SMILES) | hERG current change (%, negative = inhibition) at 1uM
20 | O=C(CN1C(=O)NC(CCc2ccccc2)C1=O)NC1CC1 (stereo not drawn) | 13.5%
21 | NC(=O)c1ccc(N=Nc2c(-c3ccccc3)[nH]n(-c3ccccc3)c2=O)cc1 | 11.5%
22 | Cc1ccccc1C(=O)NNC(=O)C1CCN(c2ncccn2)CC1 | 11.8%
23 | O=C(c1ccc(-c2nc3ccccc3s2)s1)N1CCOCC1 | 8.45%
24 | O=[N+]([O-])c1cccc(NC(=S)N2CCN(S(=O)(=O)c3ccccc3)CC2)c1 | 1.52%
25 | C[C@@H](NC(=O)Cn1ccc(NC(=O)OCc2ccccc2)nc1=O)c1cccc2ccccc12 | 15.9%
26 | Cn1c(=O)c2c(ncn2CC(=O)N/N=C/C(Cl)=C/c2ccccc2)n(C)c1=O | 1.97%
27 | O=C(COC(=O)c1ccc2c(c1)OCO2)Nc1ccccc1F | 9.81%
28 | O=C(COC(=O)CCC1CCCC1)Nc1nc2c(F)c(F)c(F)cc2s1 | 15.4%
29 | Clc1ccc(CNc2nc(CN3CCOCC3)nc3scc(-c4ccccc4)c23)cc1 | 6.2%
30 | N#Cc1c(Cl)cccc1N1CCC(C(N)=O)CC1 | 8.16%
31 | CCc1ccc(/C(C)=N/NC(=O)C(O)c2ccccc2)s1 (stereo not drawn) | 12.3%
32 | CCCn1c(=O)c2ccccc2n2c(SCc3cc(=O)oc4ccc5ccccc5c34)nnc12 | 6.93%
33 | CCC(=O)c1ccc(OC(=O)c2cccs2)cc1 | 9.7%
34 | COC(=O)CC1SC(=O)NC1=Nc1ccc(C)cc1 (stereo not drawn) | 6.88%
35 | Cn1cccc1CC(=O)NNC(=S)Nc1ccc(Cl)cc1 | 11.1%
36 | COc1cc2[nH]c(=O)n(-c3cccc(Cl)c3)c(=O)c2cc1OC | 14.5%
37 | CC1=NNC(=O)C1CCC(=O)N/N=C/c1c(Cl)cccc1Cl (stereo not drawn) | 20.4%
38 | O=C(Cc1c[nH]c2ccccc12)Nc1nccs1 | 8.5%

Row | Structure (SMILES) | hERG current change (%, negative = inhibition) at 1uM
39 | O=C(CN(C(=O)c1csnn1)c1ccccc1Cl)NC1CCCC1 | 4.73%
40 | CCOC(=O)c1c(C)oc2ccc(NS(=O)(=O)c3ccc(C(=O)O)cc3)cc12 | 10.5%
41 | O=C(COc1ccccc1)Nc1cccc(-c2nc3ccccc3[nH]2)c1 | -3.65%
42 | Cc1ccc(S(=O)(=O)CCC(=O)OCC(=O)N2CC(=O)Nc3ccccc32)cc1 | -11.1%
43 | Cc1ccc(C(=O)NCCNC(=O)c2ccc(C)nc2)cc1 | 10.3%
44 | O=C(O)c1cc(NC(=O)c2ccc3c(c2)C(=O)N(Cc2cccnc2)C3=O)cc(C(=O)O)c1 | 4.4%
45 | CCCCCCCCNc1ncnc2ccccc12 | -2.1%
46 | COc1ccc(N2CCN(C(CNC(=O)C(=O)NC3CC3)c3ccco3)CC2)cc1 (stereo not drawn) | 12.4%
47 | COc1ccc(C(=O)CN2C3=NCCCN3c3ccccc32)cc1OC | -6.85%
48 | CCOc1ccc(NC(=O)COc2nsnc2N2CCCCC2)cc1 | 9.79%
49 | Cn1nc(C(=O)NCCc2ccc(Cl)cc2)c2c1-c1ccccc1S(=O)(=O)C2 | 7.48%
50 | COC(=O)c1ccc2nc(NC(=O)COC(=O)CSc3nc(C)cc(C)n3)sc2c1 | 19.7%
51 | CN1CCN(c2ccc(-c3ccnn3C(=O)Nc3cccc(C(F)(F)F)c3)cc2)CC1 | -2.12%
52 | Cc1cc(=O)nc2c3ccccc3n(CC(=O)NCCC3=CCCCC3)n12 | -0.581%
53 | OC(COc1ccccc1)CN1CCCCCC1 (stereo not drawn) | 9.1%
54 | CCC(CO)N=C1CC(C)(C)CC(=O)/C1=C(/O)CCCN1C(=O)c2ccccc2C1=O (stereo not drawn) | 7.66%
55 | CC(C)Oc1ccc(C2NC(=O)c3ccccc3O2)cc1 (stereo not drawn) | 21.7%
56 | COc1ccc(NS(=O)(=O)c2cccc(C(=O)OCC(=O)Nc3cc(C)on3)c2)cc1 | 0.529%
57 | O=C(O)c1cccn2c(=O)c3ccccc3nc12 | 14%
